# According to ChEMBL document CHEMBL4888484, “Replenishing the malaria drug discovery pipeline: Screening and hit evaluation of the MMV Hit Generation Library 1 (HGL1) against asexual blood stage Plasmodium falciparum ,using a nano luciferase reporter read-out” (2022):
# Among all 150,000 compounds or so, about 540 (0.36%) showed an effect of 50% or more. The list shows a part of the results.
# Test system: Plasmodium falciparum
# Test: Primary screen in NF54 nanoGlo assay, in single point, at 2uM, 72h; a lower Z score goes with more inhibition
# Type: functional, Erythrocyte
# Settings: timepoint 72 hour
SMILES,% Inhibition [%],Z score
CC(C)(CNc1cccc(-n2cnnc2)c1)c1ccccc1,-3,0.62
Cc1cc(C)cc(-n2ncc3c(OCc4c(C)noc4C)ncnc32)c1,-14,1.15
Cc1cnc(-c2ccccc2)n1C[C@H]1CCCN(Cc2ccncc2)C1,7,-1.18
COCCN1C[C@]2(CCCN(C(=O)c3ccc(CO)cc3)C2)CCC1=O,1,-0.21
COc1nccnc1CNCC1(N2CCOCC2)CC1,3,-0.48
C[C@H](NS(=O)(=O)c1ccc2c(c1)CCN2C(=O)N1CCCC1)C(=O)N1CCc2ccccc21,-11,1.08
COc1ccc(-[n+]2c(-c3ccc(-c4ccccc4)cc3)cn3c2COCC3)cc1,58,-11.93
C[C@@H]1Oc2ccc(NC(=O)N3CCc4nc[nH]c(=O)c4CC3)cc2N(C)C1=O,-3,0.51
COc1cccc(CNC(=O)[C@H](C)n2nc(C)c3c(C)n(-c4ccc(C)cc4)nc3c2=O)c1OC,7,-1.25
CC(C)C(=O)N(Cc1cc(NC(=O)C2CCC2)ccc1N(C)C)C1CC1,-9,1.09
C[C@@]1(C2CC2)COCCN1C(=O)c1cccc(Oc2nccs2)c1,8,-1.04
Cc1cc(C(F)(F)F)n(C[C@@H](C)CNc2cnccn2)n1,-2,0.25
CCS(=O)(=O)Oc1cccc(CN(CC2CC2)C(=O)c2ccco2)c1,-18,1.83
Cc1cccc(N(Cc2ccc(C(=O)NCc3ccc(F)cc3)o2)c2nc(-c3ccc(Cl)cc3)cs2)c1,-17,2.45
O=C(CC1CCCCC1)Nc1nc2c(s1)C(=O)C[C@@H](C(=O)N1CCN(C(=O)c3ccco3)CC1)C2,-13,1.76
O=C(O)C[C@@H]1CN(Cc2ccc3c(c2)OCCO3)C[C@@H]1c1c[nH]nn1,0,0.02
O=C(Nc1ccc(F)cc1)c1nnn2c1CO[C@H](c1ccccc1)C2,-2,0.28
CC(C)CC(=O)NCCc1ccc(F)cc1,-6,1.21
CCCn1nc(-c2ccc(Cl)s2)cc1C(=O)N1CCN(C(C)=O)CC1,-6,1.16
CN(Cc1ccc(-n2ccnc2)cc1)Cc1noc2c1CCCC2,-8,0.91
COc1ccc(C(=O)N(Cc2ccc3c(c2)OCO3)Cc2cc(-c3ccc(C)cc3C)on2)cc1,-4,0.53

SMILES,% Inhibition [%],Z score
Cc1cccc(C(=O)N2C[C@@H]3CN(CC4CCC4)C[C@]3(C(=O)O)C2)c1,-1,0.16
Cc1ccc(C)c(C2CN(C(=O)c3ccc(OC(C)(C)C)cn3)C(C)CO2)c1 (stereo not drawn),-8,1.31
CC[C@H](C)S(=O)(=O)NC(=O)c1csc(C2CCCCC2)n1,-10,1.01
COc1ccccc1-n1nc(C)c(Cc2ccccc2)c1O,31,-3.49
CCC(NC(=O)NC(C)c1ccncc1)c1nc(C)cs1 (stereo not drawn),0,0
O=C(NC1CCCCC1)C1CCN(C(=O)c2nnn3c2CO[C@H](c2ccc(Cl)cc2)C3)CC1,-5,0.61
Nc1nnc(CCNC(=O)C2(N3CCOCC3)CCCCC2)s1,-9,0.88
COc1cncc(-n2cnc3ccccc32)c1,-9,1.2
CCCc1nc(N2CCCN(C(=O)Nc3ccc(C)cc3C)CC2)c2c(-c3cccc(C(F)(F)F)c3)noc2n1,-4,0.74
CC(C)(CO)CCCNC(=O)N1CCCC(C)(C)CC1,-5,0.65
N#Cc1ccccc1-c1ccc(CN2C[C@H]3C[C@H](O)[C@@H](O)C[C@H]3C2)o1,-5,0.96
N#Cc1nc(C2CC2c2ccccc2)oc1NCCc1ccccc1 (stereo not drawn),-11,1.46
CC1CN(C(=O)C(C)S(C)(=O)=O)CCO1 (stereo not drawn),-8,1.53
COC1CCC(N(C)C(=O)c2cc(C)no2)CC1 (stereo not drawn),-8,0.83
Cc1nc(CN2C(=O)C(=O)c3cc(Br)ccc32)cs1,38,-5.11
O=C(NCc1cccnc1)c1nn(-c2cccc(C(F)(F)F)c2)c(=O)n(Cc2ccc(F)cc2)c1=O,-4,0.36
Cc1nc2cc(-c3ccc(C(=O)N4CCNC(=O)CC4)cc3)ccc2s1,-8,1.21
COc1cccc(C(=O)N(Cc2ccc(C)cc2)c2cccc(CC(=O)N[C@@H](C)c3ccccc3)c2)c1,-8,1.49
CC1=C(c2ccccc2)[C@H]1C(=O)NC1(C(=O)O)CCCC1,9,-1.17
N#Cc1cccc(CN[C@H]2CCCN(O)C2=O)c1,-2,0.24
Cn1cccc1C(=O)NC[C@H](O)c1ccsc1,11,-1.65

SMILES,% Inhibition [%],Z score
CC(C)N(CC(N)=O)Cc1cc(Br)ccc1F,-8,1.1
COc1ccccc1NC(=O)N(Cc1cc(Cl)ccc1OS(=O)(=O)c1ccc(F)cc1)C(C)C,-9,1.24
CCc1nc(CN(CCc2ccc(OC)c(OC)c2)C2CCCCC2)n[nH]1,-2,0.23
Cc1ccc(CC2(NC(=O)c3cc(C(C)(C)C)nc(=O)[nH]3)CC2)cc1,4,-0.6
Cn1nnc(CN2CCC[C@H]2CN2CCOCC2)n1,-14,2.59
O=C1C2C(C(=O)N1Cc1ccc(Cl)cc1Cl)C1C=CC2C12CC2 (stereo not drawn),8,-1.08
Cc1cnc(N2CCC[C@H]2CCc2ccccn2)nc1,2,-0.29
O=C(CCC1CC1)N1CCN(c2ncnc3ccsc23)C[C@@H](O)C1,-9,1.42
CN(C)c1cncc(C(=O)NC(C)(C)c2cnn(C)c2)c1,-9,1.07
C[C@H]1CC(F)(F)CCN1C(=O)c1ncccc1N,-5,1.02
Cc1nc(CCN)cc(N(C)Cc2csc(C(C)C)n2)n1,-7,1.04
Cn1ncnc1C1(O)CCN(c2ncnc3ccsc23)CC1,-1,0.17
COc1ccc(Nc2nc(N3CCN(C(=O)c4ccco4)CC3)nc3ccccc23)c(OC)c1,-5,0.64
O=C(NC[C@H]1CCCO1)c1ccc(N2CCCCS2(=O)=O)cc1,-12,1.6
CCCn1nccc1-c1ccc(-n2ccnc2)nn1,7,-1.37
CC[C@@](C)(C#N)NC(=O)c1ccc(C#N)cc1,-9,1.83
Cc1cn(-c2c(F)cccc2F)nc1C(=O)N1CC(CO)C1,0,-0.01
CN1CCN(C)[C@@H](CNc2ncnc3c2Cc2ccccc2OC3)C1,-6,0.62
CNC(=O)c1cccnc1N(C)C[C@H]1CC(=O)N(C2CCCC2)C1,-2,0.39
O=C(c1cc[nH]c(=O)c1)N1CCCCCC1CC(O)c1ccco1 (stereo not drawn),-4,0.48
Cc1ccc(N2C[C@@H](c3nnc(N)o3)CC2=O)cc1,38,-5.05

SMILES,% Inhibition [%],Z score
O=C(Nc1cccc(-c2ncc[nH]2)c1)c1ccc(O)nc1,-7,0.69
Cc1ccc(NC(=O)c2nn[nH]c2[C@@H]2CCCN2)cc1,-4,0.5
COc1ccc(S(=O)(=O)N2C[C@H]3CN(C(=O)Nc4cccc(OC)c4)C[C@@H](C2)O3)cc1,-8,0.73
Cc1noc(CN(C)C(=O)[C@@H]2CC[C@H](NC(=O)c3cc(C)oc3C)C2)n1,-2,0.3
CCCC(=O)NCCNc1cc(-n2ccc(C)n2)ncn1,3,-0.44
Cn1nc(-c2ccncc2)cc1CNC(=O)c1ccsc1,-17,2.22
O=C(Nc1cccc2ccccc12)c1ccc2ncsc2c1,-7,1.22
COc1ncccc1CN(C)S(=O)(=O)N(C)C,-3,0.4
O=C(Nc1cnn([C@H]2CCOC2)c1)c1ccccn1,16,-2.09
CN(C)S(=O)(=O)Nc1cccc(Br)c1,-3,0.39
COCC(=O)Nc1cc(C(=O)NCCc2cccs2)c2c(c1)ncn2CCc1ccccc1,-10,1.41
N#Cc1nc(N2CCC[C@H](CN3CCOCC3)C2)ccc1Cl,-2,0.23
CCc1cc(N2CC(O)(c3cnnn3C)C2)ncn1,-4,0.67
Cc1ccc(OCCN2CCC3(CC2)[C@H](O)C[C@@H]3OCCO)cc1C,-14,2.34
CCCn1nc(COc2cccc(OC)c2)nc1C1(CO)CC1,-19,2.79
COCCn1nnc2ccc(NC(=O)C3CCCCC3)cc2c1=O,-3,0.36
CN1CC[C@H](N(C)c2cc(C#N)ccn2)C1=O,-1,0.13
Cc1csc([C@@H](NC(=O)Cc2cncc(O)c2)C(F)(F)F)n1,1,-0.11
C[C@@H](c1cccc(Br)c1)S(=O)(=O)CCCC#N,2,-0.24
O=S1(=O)CC[C@H](Cc2nc(-c3ccccn3)nn2-c2ccccc2)C1,7,-1.29
CCn1c2ccccc2c2nnc(N3CCN(c4ccc(F)cc4)CC3)nc21,-6,1.15
